In all, about 280,000 compounds went through this assay and about 1,100 (0.39%) were called active. Inconclusive means that the source gave no clear call. Such entries were picked first, then a sample of the others. Calls come from the whole dose curve; as a rule, active = well fitted inhibition curve with a large enough effect; inconclusive = small, poorly fitted or top-dose-only effect, or effect the other way; inactive = flat fitted curve, though single readings scatter. No potency is given beside an inconclusive call; the fits are too rough.
Biological target: Microtubule-associated protein tau (Homo sapiens) (UniProt P10636)
Chain of UniProt P10636 (P10636 whole entry, looked up): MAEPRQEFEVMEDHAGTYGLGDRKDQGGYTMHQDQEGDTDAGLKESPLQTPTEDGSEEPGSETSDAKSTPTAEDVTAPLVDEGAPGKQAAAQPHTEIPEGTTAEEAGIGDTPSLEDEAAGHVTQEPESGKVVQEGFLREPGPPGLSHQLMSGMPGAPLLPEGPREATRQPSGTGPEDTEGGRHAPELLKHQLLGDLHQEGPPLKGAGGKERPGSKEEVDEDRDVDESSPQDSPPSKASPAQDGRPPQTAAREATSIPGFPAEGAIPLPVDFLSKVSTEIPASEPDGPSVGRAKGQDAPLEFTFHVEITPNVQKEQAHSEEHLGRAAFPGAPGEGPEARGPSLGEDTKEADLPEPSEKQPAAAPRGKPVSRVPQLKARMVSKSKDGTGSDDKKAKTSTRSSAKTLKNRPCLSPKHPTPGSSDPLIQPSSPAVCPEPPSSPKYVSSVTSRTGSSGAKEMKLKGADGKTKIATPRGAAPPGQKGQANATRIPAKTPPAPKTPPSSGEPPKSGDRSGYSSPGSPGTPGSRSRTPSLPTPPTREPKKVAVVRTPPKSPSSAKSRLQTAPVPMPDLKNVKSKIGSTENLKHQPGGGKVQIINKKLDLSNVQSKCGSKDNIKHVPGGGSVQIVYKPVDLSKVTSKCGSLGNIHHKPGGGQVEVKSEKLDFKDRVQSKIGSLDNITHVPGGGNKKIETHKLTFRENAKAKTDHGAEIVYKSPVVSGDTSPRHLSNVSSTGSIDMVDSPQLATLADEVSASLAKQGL
Experiment: qHTS for Inhibitors of Tau Fibril Formation, Fluorescence Polarization; note: nearly all actives have a fitted effect of over 55% in size
Conditions: K18 P301L tau heparin fibrillization, Alexa594 FP, 6 h; series mostly up to 57.7 µM
In short: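 Read-out: fluorescence polarization of Alexa 594-labeled tau (0.24 uM), 555 nm excitation, 632 nm emission. Mixtures held 15 uM unlabeled K18 P301L, compound and 20 uM heparin, pH 7 acetate buffer, incubated 6 hr at 37 C.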
Potency is the fitted concentration of half-maximal effect; tags give direction and shape of the fitted curve.

Structure (SMILES)	Potency
COCCNC(=O)C1=CC(c2ccc3c(c2)OCO3)=NS(=O)(=O)N1C	inactive
CC1CCCCN1S(=O)(=O)c1ccc(S(=O)(=O)NCCc2ccncc2)cc1 (centres undefined)	inactive
CCCN(CCC)S(=O)(=O)c1ccc(C(=O)Nc2cc3oc4ccccc4c3cc2OC)cc1	inconclusive [inhibitor, partial curve, poor fit]
O=C(Nc1cccnc1)Nc1ccc(Br)cc1Cl	inactive
O=S(=O)(c1ccccc1)c1ccccc1/C=N\O	inactive
Cc1ccc(-c2nnn(CC(=O)N(CC(=O)NCc3ccccc3)c3cccc(C)c3C)n2)o1	inactive
CCc1ccc(NCc2cc3ccc(OC)cc3n(CC(=O)Nc3ccc(C)c(Cl)c3)c2=O)cc1	inconclusive [activator, full curve]
CCc1ccc(OCc2cc(=O)n3cc(C)sc3n2)cc1	inactive
COc1cccc(NC(=O)Cn2c(=O)n(CCc3ccc(OC)c(OC)c3)c(=O)c3ccccc32)c1	inconclusive [inhibitor, partial curve]
COc1ccccc1CNC(=O)c1nnn(CC(=O)Nc2c(C)cccc2C)c1N	inactive
CCOc1ccccc1NC(=O)c1c(NC(=O)Cc2ccc(OC)cc2)sc2c1CCC2	inactive
Cc1ccc(NC(=S)N(Cc2ccccc2)Cc2cccs2)c(C)c1	inconclusive [inhibitor, single point]
Cc1nc(N2CCC(C)CC2)c2c(C)c(C(=O)Nc3ccc(C(F)(F)F)cc3)sc2n1	inconclusive [inhibitor, full curve]
COc1cccc(Nc2nc(-c3sc(NC(=O)CC(C)C)nc3C)cs2)c1	inactive
Cc1nc2c(ccc3nc(NC(=O)C(c4ccccc4)c4ccccc4)sc32)s1	inconclusive [inhibitor, partial curve]
O=C(Nc1cc(Cl)cc(Cl)c1)c1ccc(F)c(S(=O)(=O)N2CCN(c3ccccc3F)CC2)c1	active: 20 µM
COc1ccc(-n2c(=O)c3ccc(C(=O)NCc4ccc(C)cc4)cc3n(Cc3ccc(Cl)cc3)c2=O)cc1	inconclusive [inhibitor, full curve, poor fit]
O=S(=O)(c1ccccc1)N1N=C(c2cccs2)CC1c1ccc(F)cc1 (centres undefined)	inconclusive [inhibitor, partial curve, poor fit]
COc1ccc(/C=N/n2c(N)c(S(=O)(=O)c3cccs3)c3nc4ccccc4nc32)cc1OC	inconclusive [inhibitor, partial curve]
COc1ccc(OC)c(C2CC(c3ccc(NS(C)(=O)=O)cc3)=NN2C(=O)c2ccccc2)c1 (centres undefined)	inconclusive [inhibitor, partial curve, poor fit]
Cc1cccnc1-n1c(CCN2C(=O)c3ccccc3C2=O)nc2ccccc2c1=O	inactive
CC(=O)c1ccc(NC(=O)CN2C(=O)COc3ccc(Cl)cc32)cc1	inconclusive [inhibitor, single point]
N#C/C(=C\c1ccc(N2CCOCC2)o1)C(=O)N1CCOCC1	inconclusive [inhibitor, full curve, poor fit]

Structure (SMILES)	Potency
O=C(O)c1ccc(CNC(=O)c2ccccc2NC(=O)c2cccc([N+](=O)[O-])c2)cc1	inconclusive [inhibitor, single point]
Cc1ccc(N(CC(=O)Nc2ccc(C)c(Cl)c2)S(=O)(=O)c2cccs2)cc1	inconclusive [inhibitor, partial curve]
CCOC(=O)Cn1cnc2c(cnn2-c2ccc(Cl)cc2)c1=O	inactive
Cc1ccc(N2C(=O)NC(NC(=O)C3CC3)(C(F)(F)F)C2=O)cc1 (centres undefined)	inactive
c1cc2c(cc1C1CCCCC1)c1c3n2CCN[C@H]3CCC1	inactive
CCCC(C)C(=O)Nc1nc(C)c(-c2csc(Nc3cc(OC)ccc3OC)n2)s1 (centres undefined)	inconclusive [activator, full curve, poor fit]
O=C(CSc1nnc(COc2ccccc2)o1)Nc1cc(C(F)(F)F)ccc1Cl	inconclusive [inhibitor, partial curve]
CCSc1nnnn1-c1ccccc1	inactive
Cc1csc(-c2cnn(-c3ccccc3)c2NC(=O)c2cccc(C(F)(F)F)c2)n1	inconclusive [activator, single point]
Cc1ccc(NS(=O)(=O)c2ccc(-c3cc(C)no3)cc2)c(Br)c1	inactive
O=C(Cc1ccccc1)c1ccc(Cl)cc1	inconclusive [inhibitor, single point]
N[C@H](C(=O)O)[C@@H]1[C@@H](C(=O)O)C1(F)F	inconclusive [inhibitor, full curve, poor fit]
O=S(=O)(Oc1ccc(Cl)cc1)c1cccc2cccnc12	inactive
S=C(c1ccc(-c2ccc(Br)cc2)o1)N1CCOCC1	inactive
N#CCc1ccc(NS(=O)(=O)c2ccc(C3CCCCC3)cc2)cc1	inconclusive [inhibitor, partial curve]
Cc1ccc(NC(=O)CC2S/C(=N/N=C/c3ccco3)NC2=O)cc1Cl (centres undefined)	inconclusive [inhibitor, single point]
Cc1c(C(=O)NCc2ccc3c(c2)OCO3)sc2nc(-c3ccccc3)cn12	inconclusive [inhibitor, single point]
COC(=O)c1c(NC(=O)COC(=O)c2ccc(O)cc2)sc2c1CCCCC2	inconclusive [inhibitor, partial curve]
O=C(Nc1ccc(C(F)(F)F)cc1)C(Cc1ccccc1)n1cccc1 (centres undefined)	inconclusive [inhibitor, partial curve]
CC(C)C[C@H](NC(=O)c1nc[nH]c1C(=O)NC1CCN(C(=O)OC(C)(C)C)CC1)C(=O)OC(C)(C)C	inactive
NC(=S)N1CCCc2ccccc21	inactive
COc1ccccc1NC(=O)C1=C(C)Nc2nc(SCc3ccccc3)nn2C1c1ccncc1 (centres undefined)	inconclusive [inhibitor, single point]
Cc1cc(NC(=O)c2ccc(NC(=O)CCS(=O)(=O)c3cccs3)cc2)ccc1Br	inconclusive [inhibitor, partial curve]

Structure (SMILES)	Potency
Cc1cc2c(cc3c(SCc4ccccc4Cl)nnc(C)n32)o1	inconclusive [activator, single point]
CCC(=O)Nc1cccc(-c2nc3cc(C)ccc3o2)c1	inconclusive [inhibitor, partial curve, poor fit]
Cc1ccc(S(=O)(=O)c2cn(CC(=O)Nc3ccc(Cl)cc3)c3ccc(F)cc3c2=O)cc1C	inconclusive [inhibitor, partial curve]
CSc1ccc(CCNC(=O)c2c(C)oc3ncn(C)c(=O)c23)cc1	inactive
Cc1ncc(CN2CCN(CCC(C)C)C(CCO)C2)s1 (centres undefined)	inconclusive [inhibitor, single point]
COc1ccc(N2CCN(C(=O)C3CCN(c4nc5ccc(C)cc5[nH]4)CC3)CC2)cc1	inactive
O=C(CN1c2ccccc2S(=O)(=O)c2ccccc21)Nc1cccc(C(F)(F)F)c1	inconclusive [inhibitor, partial curve]
Cc1ccc(C(=O)NNc2c3ccccc3nc3ccccc23)cc1	inconclusive [activator, partial curve]
COC(=O)c1ccc(NC(=O)CCc2c(C)nn(-c3ccc(N4CCCCC4)nn3)c2C)cc1	inactive
CCc1nn2cc(C(=O)c3ccccc3O)cnc2c1-c1ccc(F)cc1	inconclusive [inhibitor, partial curve, poor fit]
CCN(Cc1ccccc1)c1ccc(/C=N/N=C(N)N)cc1	inconclusive [activator, full curve, poor fit]
O=C(N/N=C/c1ccccc1OCc1ccccc1)c1cccs1	inconclusive [inhibitor, partial curve]
Cc1cccc2sc(N(CCN(C)C)C(=O)/C=C/c3cccs3)nc12	inconclusive [inhibitor, full curve]
Cc1ccccc1NC(=O)c1ccc(N(Cc2ccccc2)S(C)(=O)=O)cc1	inconclusive [inhibitor, partial curve]
COC(=O)c1ccccc1NC(=O)CCS(=O)(=O)c1nc(-c2ccc3c(c2)OCO3)cc(C(F)(F)F)n1	inactive
COC(=O)c1c(-c2cccs2)csc1NC(=O)c1ccc(C(C)C)cc1	inconclusive [inhibitor, partial curve]
C=CCSc1nnc(NC(=O)c2cccc(S(=O)(=O)N(C)c3ccccc3)c2)s1	inconclusive [inhibitor, single point]
N#C/C(=C\c1ccc([N+](=O)[O-])o1)c1nc2ccccc2[nH]1	inconclusive [inhibitor, partial curve, poor fit]
O=C(Cn1nnc(-c2ccccc2Cl)n1)N/N=C/c1ccc2c(c1)OCO2	inconclusive [inhibitor, single point]
COc1ccc(CN2CCS(=O)(=O)CC2)cc1OC	inactive
CN(C)C(=O)/N=N/C(=O)N(C)C	active: 14.1 µM
Cc1c(Cl)cccc1Nc1nn2c(=O)c3ccc(C(=O)N(C)Cc4ccccc4)cc3nc2s1	inconclusive [inhibitor, single point]
O=C(Nc1cccc(-c2nc3ccccc3o2)c1)c1cccc2c(Cl)cccc12	inconclusive [inhibitor, partial curve]

— PubChem BioAssay AID1468 (National Center for Advancing Translational Sciences (NCATS), 2008)
